Test results from PubChem BioAssay AID445 (National Center for Advancing Translational Sciences (NCATS), 2006).
About 40 (0.04%) of roughly 110,000 compounds were called active. Inconclusive means that the source gave no clear call. Such entries were picked first, then a sample of the others. The call rests on the fitted dose curve; in most records, active means well fitted curve in the direction sought with a large enough effect in the signal ratio (not every such curve was filed as active); inconclusive means small, poorly fitted or top-dose-only effect, or a change in a side signal; inactive means flat fitted curve, though single readings scatter; the % refers to the signal ratio. Potencies beside an inconclusive call are fits to weak or partial responses and may not hold up.

Test: IkB Signaling;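 on IkBa stabilization activation: 0% = basal untreated cells and 100% = reference inhibitor full response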
Settings: ABC-DLBCL IkBa-CBG/CBR dual luciferase ratio (green luciferase fused to IkBa over red control in OCI-Ly3 lymphoma cells), 4 h; IkBa stabilization activation: at 57.1 µM (top of the series), scaled: untreated 0%, proteasome inhibitor 100% unless noted
How it was run: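 Luminescence ratio of IκBα-fused green versus native red beetle luciferase in OCI-Ly3 cells, 4 h post-doxycycline with compound; red signal alone, scaled from basal (0%) to zero light (-100%), flagged nonspecific or cytotoxic effects.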
Potency means the concentration at half of the fitted maximal effect.

Structure (SMILES) | IkBa stabilization activation | Potency
Cc1onc(-c2ccccc2Cl)c1C(=O)Nc1ccc(OCC(=O)N2CCOCC2)cc1 | inactive: -0.0718% | –
O=C(NCc1ccco1)Nc1ccc2nsnc2c1 | – | inconclusive: 7.94 µM [signal inhibitor, full curve]
NC[C@H]1O[C@@H](n2cnc3c(=O)[nH]c(N)nc32)[C@@H](O)[C@@H]1O | inactive: -0.426% [at 11.4 µM, scaled: untreated 0%, proteasome inhibitor 100%] | –
Cc1c(C(=O)NCc2ccc3c(c2)OCO3)oc2ccccc12 | inconclusive: 5.31% [signal inhibitor] | –
CCCC(=O)NCCc1nc2ccccc2n1Cc1c(F)cccc1Cl | inconclusive: 2.54% [signal inhibitor] | –
O=c1c(-c2cc(F)cc(F)c2)nc2cnc(N3CCNCC3)nc2n1Cc1ccc(F)cc1 | inactive: -0.764% [at 11.4 µM, scaled: untreated 0%, proteasome inhibitor 100%] | –
NC(=O)Cn1c(=O)n(CCCCCC(=O)NCc2ccccc2)c(=O)c2sccc21 | inactive: -2.49% | –
O=C(COC(=O)c1n[nH]c2ccccc12)Nc1ccc(S(=O)(=O)N2CCCC2)cc1 | inconclusive: 5.51% [signal inhibitor] | –
COc1ccc(-n2c(=O)c3ccccc3n(Cc3ccccc3C)c2=O)c(OC)c1 | – | inconclusive: 20 µM [signal inhibitor]
CC(=O)Nc1nonc1-c1nnc(SCC(=O)Nc2ccc(C)c(Cl)c2)n1-c1ccccc1 | inconclusive: 3.55% [signal inhibitor] | –
CCOc1ccc(C(=O)c2cnc3ccc(Cl)cc3c2S(=O)(=O)c2ccc(C)cc2)cc1 | inconclusive: 10.6% [signal inhibitor] | –
Cc1ccc(-n2nc(CO)c(C(=O)NCCCc3ccccc3)n2)cc1 | inconclusive: -0.367% [signal inhibitor] | –
O=C(Nc1ccccc1)N1CCC(c2ccccc2)C1 (stereo not given) | – | inconclusive: 25.1 µM [signal inhibitor, partial curve]
c1nc2nc3c(c(N4CCOCC4)n2n1)CCCC3 | inactive: -0.266% | –
COc1ccccc1CNC(=O)c1cnc2sc(N3CCCCCC3)nn2c1=O | inactive: -3.92% | –
O=C(CSc1nnc2ccc3ccccc3n12)c1ccc(F)cc1 | inconclusive: 17.1% [signal inhibitor] | –
Cc1ccc(C(=O)Nc2onc3c2CCCC3)cc1 | inactive: -0.667% | –
CN(CC(=O)O)CC(=O)O | inactive: 1.35% [at 11.4 µM, scaled: untreated 0%, proteasome inhibitor 100%] | –
Cc1ccccc1C(=O)Nc1ccc2c(c1)CCCN2C(=O)c1cccs1 | inconclusive: 2.72% [signal inhibitor] | –
COc1ccc(C(=O)N2CCC(c3nc(-c4ccc(S(=O)(=O)N5CCCC5)cc4)no3)CC2)cc1 | inconclusive: 0.191% [signal inhibitor] | –
CCCn1c(SCC(=O)N2CCN(c3ccccc3)CC2)nc2ccccc2c1=O | inconclusive: -3.16% [signal inhibitor] | –
O=S(=O)(Nc1nc2ccccc2s1)c1ccc(Br)s1 | inconclusive: 2.4% [signal inhibitor] | –
Cc1cccc(C)c1NC(=O)Cn1c(=O)n(Cc2ccco2)c(=O)c2ccc(C(=O)NC3CCCC3)cc21 | inactive: 3.03% | –

Structure (SMILES) | IkBa stabilization activation | Potency
O=C(c1cc(-c2ccc(Cl)c(Cl)c2)on1)N1CCCCC1 | – | inconclusive: 1 µM [signal inhibitor, partial curve]
O=C(CCn1c(=O)c2sccc2n(Cc2cccc(F)c2)c1=O)NCc1ccc2c(c1)OCO2 | inactive: -0.338% | –
CCC(=O)Nc1nonc1-c1nc2ccccc2n1Cc1ccccc1 | inactive: -2.97% | –
Cc1ccc(-n2ncc3c(Nc4ccccc4C)ncnc32)cc1 | inconclusive: 1.45% [signal inhibitor] | –
CC(=O)Oc1c2occc2cc2ccc(=O)oc12 | inactive: 4.1% | –
COc1cccc(Cn2c(NCc3ccc(C)cc3)nc3c2c(=O)n(C)c(=O)n3C)c1 | inconclusive: 5.47% [signal inhibitor] | –
c1ccc2c(N3CCOCC3)nc(-c3ccoc3)nc2c1 | inactive: -0.127% [at 11.4 µM, scaled: untreated 0%, proteasome inhibitor 100%] | –
Cc1ccc(-c2nnc(CSc3nnc(COc4ccccc4)n3-c3ccc(C)cc3)o2)cc1 | inactive: 4.73% | –
Cc1nn(-c2ccc3nnc(C)n3n2)c(C)c1CCC(=O)Nc1ccc(OC(F)(F)F)cc1 | inactive: 2.34% | –
COC(=O)Nc1nnc(-c2ccccc2Cl)s1 | inactive: -1.37% | –
CCOCCCn1c(=N)c(C(N)=S)cc2c(=O)n3cccc(C)c3nc21 | inactive: -0.636% | –
CCCS(=O)(=O)N1CCc2cc(OC)c(OC)cc2C1 | inactive: 1.08% | –
O=C(CCCn1c(=O)c2sccc2n(Cc2cccc(Cl)c2)c1=O)NCc1ccc2c(c1)OCO2 | inconclusive: 8.67% [signal inhibitor] | –
CNS(=O)(=O)c1cn(CC(=O)N2CCN(c3cc(C)ccc3C)CC2)cc1S(=O)(=O)NC | inconclusive: -2.68% [signal inhibitor] | –
Cc1cc(C)cc(NC(=O)CSCc2cc(=O)c3ccc(C)c(C)c3[nH]2)c1 | inconclusive: 0.869% [signal inhibitor] | –
O=C(Nc1ccc2oc(-c3ccccc3F)nc2c1)c1ccc2c(c1)OCCO2 | inconclusive: -3.51% [signal inhibitor] | –
CCOc1ccc(Nc2cc(C)nc(-n3nc(C)cc3C)n2)cc1 | inactive: 1.55% | –
COc1ccc(NC(=O)CSc2nc(-c3ccco3)nc3cc(=O)[nH]n23)cc1 | inconclusive: -0.44% [signal inhibitor] | –
Fc1ccc(Cn2c(-c3cccc(Br)c3)nc3ccccc32)cc1 | inconclusive: 14.4% [signal inhibitor] | –
Cc1nn2c(C)c(C(=O)NCC(C)c3ccccc3)cnc2c1-c1ccccc1 (stereo not given) | inconclusive: 3.56% [signal inhibitor] | –
O=C(NCCc1nc2ccccc2n1CCCOc1ccc(Cl)cc1)C1CCCCC1 | inconclusive: -1.05% [signal inhibitor] | –
Cc1cccc(NC(=O)c2sc3nc(-c4ccccc4)cn3c2C)n1 | – | inconclusive: 20 µM [signal inhibitor, partial curve]
